Results from PubChem BioAssay AID1460 (National Center for Advancing Translational Sciences (NCATS), 2008).
In all, about 270,000 compounds went through this assay and about 5,800 (2.1%) were called active. Inconclusive means that the source gave no clear call. Such entries were picked first, then a sample of the others. Calls come from the whole dose curve; as a rule, active = well fitted inhibition curve with a large enough effect; inconclusive = small, poorly fitted or top-dose-only effect; inactive = flat fitted curve, though single readings scatter. A potency beside an inconclusive call is a rough fit, not a confirmed value.

These molecules were tested against Microtubule-associated protein tau (Homo sapiens) (UniProt P10636) (assay: qHTS for Inhibitors of Tau Fibril Formation, Thioflavin T Binding). Details: recombinant tau K18 P301L (four-repeat tau fragment), heparin-induced fibrillization, ThT fluorescence; series mostly up to 57.4 µM.
In short: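 Heparin-induced fibrillization of the P301L-mutant K18 repeat-domain fragment of human tau was followed by ThT binding in quantitative high-throughput format.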
Note: nearly all actives have a fitted effect of over 55% in size.
Potency is the fitted concentration of half-maximal effect; tags give direction and shape of the fitted curve.

UniProt P10636, sequence (P10636 whole entry, looked up, the tested form may be a part): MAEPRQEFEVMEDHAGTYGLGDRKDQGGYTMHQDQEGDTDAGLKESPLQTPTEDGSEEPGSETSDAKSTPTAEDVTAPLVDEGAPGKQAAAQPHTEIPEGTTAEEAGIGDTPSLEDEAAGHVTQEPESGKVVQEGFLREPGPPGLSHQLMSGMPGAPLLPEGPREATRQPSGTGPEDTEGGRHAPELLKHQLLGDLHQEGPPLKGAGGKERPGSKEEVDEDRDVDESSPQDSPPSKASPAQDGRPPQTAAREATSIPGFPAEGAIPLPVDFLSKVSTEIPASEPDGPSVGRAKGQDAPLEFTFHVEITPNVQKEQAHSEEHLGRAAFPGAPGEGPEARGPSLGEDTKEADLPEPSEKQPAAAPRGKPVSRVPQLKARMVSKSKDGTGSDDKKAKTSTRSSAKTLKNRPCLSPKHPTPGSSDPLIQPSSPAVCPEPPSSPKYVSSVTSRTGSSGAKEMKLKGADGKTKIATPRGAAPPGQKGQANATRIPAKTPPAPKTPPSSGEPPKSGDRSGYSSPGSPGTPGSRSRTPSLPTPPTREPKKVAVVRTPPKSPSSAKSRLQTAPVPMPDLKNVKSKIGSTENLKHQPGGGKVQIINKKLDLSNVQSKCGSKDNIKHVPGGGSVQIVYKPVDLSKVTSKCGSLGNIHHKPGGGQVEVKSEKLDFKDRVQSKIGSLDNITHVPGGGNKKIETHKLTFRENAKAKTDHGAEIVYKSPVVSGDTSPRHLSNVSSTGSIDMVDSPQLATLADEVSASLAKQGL

Row | Compound | Potency
1 | Cc1ccc(C)c(NC(=O)COC(=O)c2cccc3c2C(=O)c2ccccc2C3=O)c1 | inconclusive: 15.8 µM [inhibitor, partial curve]
2 | S=c1[nH]nc(-c2cccnc2)n1/N=C/C=C/c1ccco1 | inconclusive: 28.2 µM [inhibitor, single point]
3 | C(=N\N1CCN(c2ccccc2)CC1)/c1ccccc1 | inconclusive: 0.794 µM [inhibitor, partial curve]
4 | CNC(=O)COC(=O)/C=C/c1cn(-c2ccccc2)nc1-c1ccc(C)o1 | inactive
5 | COc1ccc2cc3c(N)nn(C(=O)Cc4ccccc4OC)c3nc2c1 | inconclusive: 14.1 µM [inhibitor, partial curve]
6 | C/C(=N\Nc1cccc([N+](=O)[O-])c1)c1ccccc1O | inconclusive: 3.16 µM [inhibitor, full curve]
7 | CCOc1ccc(NC(=NCc2ccc3c(c2)OCO3)SC2CC(=O)N(c3ccc(C(=O)O)cc3)C2=O)cc1 (stereo not given) | inconclusive: 20 µM [inhibitor, single point]
8 | CC1(C)Cc2c(ccc3ccccc23)/C(=C/C(=O)N2CCCCC2)N1 | inconclusive: 31.6 µM [inhibitor, partial curve]
9 | CC1CN(Cc2ccc(Cl)cc2Cl)CC(C)O1 (stereo not given) | inactive
10 | Cc1cc(C)cc(N=Cc2ccc([N+](=O)[O-])s2)c1 | inconclusive: 17.8 µM [inhibitor, partial curve]
11 | O=C(Nc1ccc(Br)cc1)c1ccc(F)c(S(=O)(=O)NC2CCCCCC2)c1 | inactive
12 | Cn1cccc1Cc1nnc(SCC(=O)NCc2ccco2)n1-c1ccc(F)cc1 | inconclusive: 25.1 µM [inhibitor, partial curve]
13 | O=C(/C=C\c1ccco1)c1ccc(NC(=O)c2ccco2)cc1 | inconclusive: 20 µM [inhibitor, partial curve]
14 | CCc1cccc(OCCn2ccnc2)c1 | inactive
15 | c1ccc(N2CCN(c3nc4ccccc4n4nnnc34)CC2)cc1 | inconclusive: 10 µM [inhibitor, partial curve]
16 | OC(COCc1cccs1)CN1CCN(c2ccccc2Cl)CC1 (stereo not given) | inactive
17 | Cc1ccc(NC(=O)Cn2c(O)c(N=NC(=O)c3cc4ccccc4cc3O)c3ccccc32)cc1 | inconclusive: 15.8 µM [inhibitor, partial curve]
18 | CCN(CC)c1ccc(CC(=O)NC(C)Cc2ccccc2)cc1 (stereo not given) | inactive
19 | CCOC(=O)c1cc2c(=O)n3ccccc3nc2n(Cc2ccco2)c1=NC(=O)c1ccc(Br)cc1 | inactive
20 | CSc1nnc(-c2ccccc2)c(-c2ccccc2)n1 | inactive
21 | COCCCNC1=C(Cl)C(=O)c2ccccc2C1=O | inconclusive: 11.2 µM [inhibitor, partial curve]
22 | CCOC(=O)C1CCN(c2ncnc3c2oc2ccc(Br)cc23)CC1 | inconclusive: 14.1 µM [inhibitor, partial curve]
23 | CCCCn1nnnc1SCC(=O)Nc1ccc(F)cc1 | inactive

Row | Compound | Potency
24 | Cc1nc2ccc(NC(=O)c3ccc(Cl)c(NC(=O)c4cccs4)c3)cc2s1 | inconclusive: 2 µM [inhibitor, full curve, poor fit]
25 | O=C(Nc1ccccc1N1CCCCC1)c1ccc(-c2cccc(Cl)c2)o1 | inactive
26 | Cc1cccc(NS(=O)(=O)c2cc(NC(=O)CC(=O)c3ccc([N+](=O)[O-])cc3)ccc2C)c1 | inconclusive: 4.47 µM [inhibitor, full curve]
27 | Cc1ccc2c(c1)N(C(=O)N1CCC(C(=O)NCc3cccc(Br)c3)CC1)CCO2 | inconclusive: 17.8 µM [inhibitor, single point]
28 | CCCNC(=O)OC[C@H]1O[C@H](CCO/N=C/c2ccc(C(=O)N3[C@H](c4ccc(C)cc4)[C@@H](C)CC[C@H]3C(=O)OC)cc2)C=C[C@@H]1Oc1ccc(OC)cc1 | inactive
29 | O=C(Nc1ccccc1)N1CCCC(c2nc(-c3ccc(F)cc3)no2)C1 (stereo not given) | inactive
30 | O=C(N/N=C/c1ccc[nH]1)c1ccc(COc2cccc3cccnc23)cc1 | inactive
31 | Cc1ccc(-c2cccc(C3CC=CC4C3C(=O)N(Cc3ccccc3)C4c3ccc(C(F)(F)F)cc3)c2)cc1 (stereo not given) | inconclusive: 39.8 µM [inhibitor, single point]
32 | CCc1ccc(-n2nnc(-c3nsc(NC(=O)c4ccccc4Cl)n3)c2C)cc1 | inconclusive: 2 µM [inhibitor, partial curve]
33 | COC(=O)C1=C(C(=O)OC)C(c2cc([N+](=O)[O-])ccc2O)c2sc(=O)[nH]c2S1 (stereo not given) | inconclusive: 17.8 µM [inhibitor, partial curve]
34 | CC(=O)Nc1ccc(NC(=O)c2cc(=O)c3ccccc3o2)cc1 | inconclusive: 28.2 µM [inhibitor, partial curve]
35 | O=C(NC(=S)Nc1ccc(S(=O)(=O)N2CCCC2)cc1)C1CC1 | inactive
36 | Cc1ccc(-n2nc(CO)c(C(=O)NCc3ccccn3)n2)cc1 | inactive
37 | Cc1ccc2nc(N(CCCN(C)C)C(=O)c3ccco3)sc2c1 | inconclusive: 39.8 µM [inhibitor, single point]
38 | N#CC(Cc1ccc(O)c(O)c1)C(=O)N1CCc2ccccc21 (stereo not given) | inactive
39 | Cc1ccccc1SCC(=O)OCC(=O)Nc1ccc(N(C)C)cc1 | inconclusive: 10 µM [inhibitor, partial curve]
40 | COc1ccccc1N1CCN(c2nc3ccccc3n3cnnc23)CC1 | inconclusive: 12.6 µM [inhibitor, partial curve]
41 | O=C1C(=O)c2ccccc2C(O)=C1CCCCl | inconclusive: 31.6 µM [inhibitor, partial curve, poor fit]
42 | O=c1[nH]n2c(=O)c3c([nH]c2c1N=Nc1cccc(Cl)c1)CCC3 | inactive
43 | COc1ccc(-c2nc(-c3cc4cc(Br)ccc4oc3=O)cs2)cc1 | inconclusive: 12.6 µM [inhibitor, partial curve, poor fit]
44 | Cc1cc(-c2ccccc2)n(-c2ccc(C(=O)NC(C)C)cc2)n1 | inactive
45 | COC(=O)Nc1ccc2c(c1)N(C(=O)CCN1CCN3CCCC3C1)c1ccccc1S2 (stereo not given) | inconclusive: 39.8 µM [inhibitor, single point]
